These are yes or no findings as the source states them, for the method shown. In cells and extracts the contact can be indirect. Some binding calls cover weakened binding; strength is not graded here. For part of these data: Where a sequence is shown, tags or fusion partners need not be part of it. Each block holds one binder with its values, some of them ahead of it.
Assays:
[1] = target: GST–Pol30 (yeast PCNA fused to GST) (S. cerevisiae) (UniProt P15873); assay: pull-down; purified recombinant GST–Pol30 as bait, whole-cell extracts of yeast expressing HF-tagged Scc2^E822K from pADH1; only the target purified
[2] = target: human NIPBL, endogenous (human (endogenous in TK6)), Q6KC79; assay: co-IP; IP of endogenous NIPBL (anti-NIPBL A301-779A, Dynabeads Protein A) from TK6 lysates with benzonase; lysis 150 mM NaCl, washes 200 mM NaCl, 0.5% NP-40; also after nocodazole synchronisation and release of TP53 knockout TK6 cells (asynchronous, G1, S, G2/M); conditions: remark: other sources report otherwise
[3] = target: human NIPBL, endogenous (human (endogenous in TK6)) (UniProt Q6KC79); assay: as above

Sequences of proteins named here, by UniProt entry; tags and fusion partners are left off.
UniProt P15873: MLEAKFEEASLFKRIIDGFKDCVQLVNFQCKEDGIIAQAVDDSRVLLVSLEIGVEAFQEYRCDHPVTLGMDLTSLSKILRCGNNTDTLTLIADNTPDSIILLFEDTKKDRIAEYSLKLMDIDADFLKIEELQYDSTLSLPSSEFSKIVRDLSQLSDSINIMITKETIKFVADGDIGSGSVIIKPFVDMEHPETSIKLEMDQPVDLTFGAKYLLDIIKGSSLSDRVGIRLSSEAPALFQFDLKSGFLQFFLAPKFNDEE
UniProt Q6KC79: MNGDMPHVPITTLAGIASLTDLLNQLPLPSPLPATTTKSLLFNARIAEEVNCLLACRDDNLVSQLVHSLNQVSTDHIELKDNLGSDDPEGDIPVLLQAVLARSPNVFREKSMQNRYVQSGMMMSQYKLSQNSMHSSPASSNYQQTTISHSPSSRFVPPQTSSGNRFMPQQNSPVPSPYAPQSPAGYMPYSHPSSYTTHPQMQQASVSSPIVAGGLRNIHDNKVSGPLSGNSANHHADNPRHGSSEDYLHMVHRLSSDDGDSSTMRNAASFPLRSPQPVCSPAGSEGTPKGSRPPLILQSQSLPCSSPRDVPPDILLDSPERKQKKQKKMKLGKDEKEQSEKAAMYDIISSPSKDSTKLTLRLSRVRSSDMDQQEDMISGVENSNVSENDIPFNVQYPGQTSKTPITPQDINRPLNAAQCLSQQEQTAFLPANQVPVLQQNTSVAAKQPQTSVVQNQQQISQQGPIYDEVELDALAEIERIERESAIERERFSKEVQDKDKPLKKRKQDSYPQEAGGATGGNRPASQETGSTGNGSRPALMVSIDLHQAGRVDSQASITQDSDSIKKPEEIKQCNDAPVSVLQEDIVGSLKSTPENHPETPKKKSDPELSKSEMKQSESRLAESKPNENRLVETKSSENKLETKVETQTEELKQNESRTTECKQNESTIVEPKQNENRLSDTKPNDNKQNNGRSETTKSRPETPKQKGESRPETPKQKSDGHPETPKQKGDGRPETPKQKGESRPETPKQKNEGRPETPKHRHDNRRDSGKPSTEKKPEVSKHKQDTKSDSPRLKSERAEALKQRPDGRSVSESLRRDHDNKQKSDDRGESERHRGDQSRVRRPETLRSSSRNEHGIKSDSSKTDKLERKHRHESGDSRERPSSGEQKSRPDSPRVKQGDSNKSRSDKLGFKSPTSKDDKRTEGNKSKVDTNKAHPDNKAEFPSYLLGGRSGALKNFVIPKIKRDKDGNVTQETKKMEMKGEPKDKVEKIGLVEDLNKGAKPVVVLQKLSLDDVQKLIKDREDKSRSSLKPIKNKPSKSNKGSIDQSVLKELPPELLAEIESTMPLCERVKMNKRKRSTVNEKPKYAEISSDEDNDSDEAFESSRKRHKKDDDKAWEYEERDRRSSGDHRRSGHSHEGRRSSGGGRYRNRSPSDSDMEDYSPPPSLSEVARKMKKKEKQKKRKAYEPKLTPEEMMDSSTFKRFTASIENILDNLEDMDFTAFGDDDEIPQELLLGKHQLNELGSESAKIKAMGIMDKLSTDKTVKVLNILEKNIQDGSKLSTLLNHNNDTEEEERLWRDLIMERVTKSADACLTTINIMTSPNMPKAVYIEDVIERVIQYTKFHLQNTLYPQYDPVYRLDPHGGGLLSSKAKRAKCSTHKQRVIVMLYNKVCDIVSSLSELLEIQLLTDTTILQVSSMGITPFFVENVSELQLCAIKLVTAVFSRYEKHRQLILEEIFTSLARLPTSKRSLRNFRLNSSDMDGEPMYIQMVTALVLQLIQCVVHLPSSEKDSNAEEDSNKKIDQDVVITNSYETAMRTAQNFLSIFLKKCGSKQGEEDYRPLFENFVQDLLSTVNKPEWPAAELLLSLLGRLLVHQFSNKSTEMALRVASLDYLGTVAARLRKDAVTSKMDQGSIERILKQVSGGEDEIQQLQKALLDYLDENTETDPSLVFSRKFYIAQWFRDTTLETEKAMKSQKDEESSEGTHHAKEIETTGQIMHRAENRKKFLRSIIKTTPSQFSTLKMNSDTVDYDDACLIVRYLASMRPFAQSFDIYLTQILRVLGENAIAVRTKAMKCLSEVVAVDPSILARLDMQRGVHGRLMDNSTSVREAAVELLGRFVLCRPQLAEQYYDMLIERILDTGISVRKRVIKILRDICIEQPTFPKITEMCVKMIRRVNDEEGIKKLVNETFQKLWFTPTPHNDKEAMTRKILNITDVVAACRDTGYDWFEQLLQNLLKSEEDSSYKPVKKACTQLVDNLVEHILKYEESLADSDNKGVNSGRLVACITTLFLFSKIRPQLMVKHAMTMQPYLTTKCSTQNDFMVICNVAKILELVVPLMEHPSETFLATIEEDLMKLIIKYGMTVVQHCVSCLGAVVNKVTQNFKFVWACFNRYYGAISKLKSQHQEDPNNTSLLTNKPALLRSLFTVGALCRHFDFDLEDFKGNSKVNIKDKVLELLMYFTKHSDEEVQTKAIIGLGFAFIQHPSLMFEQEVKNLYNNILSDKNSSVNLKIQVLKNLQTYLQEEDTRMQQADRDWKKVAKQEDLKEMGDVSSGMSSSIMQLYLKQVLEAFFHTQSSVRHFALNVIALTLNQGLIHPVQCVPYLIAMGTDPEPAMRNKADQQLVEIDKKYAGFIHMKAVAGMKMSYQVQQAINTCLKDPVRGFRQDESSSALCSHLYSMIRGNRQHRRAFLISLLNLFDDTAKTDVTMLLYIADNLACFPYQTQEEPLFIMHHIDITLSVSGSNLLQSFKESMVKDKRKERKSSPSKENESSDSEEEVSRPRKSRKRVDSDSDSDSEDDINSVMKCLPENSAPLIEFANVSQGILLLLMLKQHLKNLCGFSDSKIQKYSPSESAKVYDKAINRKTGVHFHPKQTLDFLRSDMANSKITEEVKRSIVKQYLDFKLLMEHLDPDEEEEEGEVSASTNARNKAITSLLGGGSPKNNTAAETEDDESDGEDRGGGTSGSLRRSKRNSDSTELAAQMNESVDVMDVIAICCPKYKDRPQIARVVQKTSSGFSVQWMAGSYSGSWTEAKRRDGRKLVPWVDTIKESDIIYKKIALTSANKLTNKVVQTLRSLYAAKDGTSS

binding [1]: binds
B1: N-terminally 7His8Flag (HF)-tagged Scc2^E822K (protein, UniProt Q04002 1-1493)
chain: MSYPGKDKNIPGRIIEALEDLPLSYLVPKDGLAALVNAPMRVSLPFDKTIFTSADDGRDVNINVLGTANSTTSSIKNEAEKERLVFKRPSNFTSSANSVDYVPTNFLEGLSPLAQSVLSTHKGLNDSINIEKKSEIVSRPEAKHKLESVTSNAGNLSFNDNSSNKKTKTSTGVTMTQANLAEQYLNDLKNILDIVGFDQNSAEIGNIEYWLQLPNKKFVLTTNCLTKLQMTIKNITDNPQLSNSIEITWLLRLLDVMVCNIKFSKSSLKMGLDDSMLRYIALLSTIVLFNIFLLGKNDSNLHRESYIMEPVNFLSDLIESLKILTIEYGSLKIEFDTFQEALELLPKYIRNGPFLDDNVTAKLVYIFSDLLMNNDIEATTNIQFQSFWDNVKRISSDILVSLFGSFDQQRGFIIEELLSHIEKLPTKRIQKKLRKVGNQNIYITDFTFTLMSMLENINCYSFCNQMKDIAPENIDLLKNEYKKQEEFLFNIVEHINDTILERFFKNPSALRYVIDNFVQDLLLLISSPQWPVTEKILSSLLKRLLSVYSPSMQVSANIETICLQLIGNIGSTIFDIKCSTRDHEDNNLIKMINYPETLPHFFKSFEECIAYNETIKCRRSATRFLWNLRLGTILILEEYTKDAKEQIITVDNELKKILEQIKDGGLGPELENREADFSTIKLDYFSILHAFELLNLYDPYLKLILSLLAKDKIKLRSTAIKCLSMLASKDKVILSNPMVKETIHRRLNDSSASVKDAILDLVSINSSYFEFYQQINNNYNDDSIMVRKHVLRINEKMYDETNDIVTKVYVIARILMKIEDEKDNIIDMARLILLNRWILKVHEVLDQPEKLKEISSSVLLVMSRVAIMNEKCSQLFDLFLNFYLLNKEAHSKEAYDKITHVLTILTDFLVQKIVELNSDDTNEKNSIVDKQNFLNLLAKFADSTVSFLTKDHITALYPYMVSDEKSDFHYYILQVFRCTFEKLANFKQKFLYDLETTLLSRLPKMNVREIDEAMPLIWSVATHRHDTARVAKACSSCLSHLHPYINKANNEEAAIVVDGKLQRLIYLSTGFARFCFPKPSNDKIAFLQEGETLYEHITKCLLVLSKDKITHVIRRVAVKNLTKLCGNHPKLFNSRHVLHLLDKEFQSDQLDIKLVILESLYDLFLLEERKSVRNTGVNSTLSSNSILKKKLLKTNRVEFANDGVCSALATRFLDNILQLCLLRDLKNSLVAIRLLKLILKFGYTNPSHSIPTVIALFASTSQYIRHVAYELLEDLFEKYETLVFSSLSRGVTKAIHYSIHTDEKYYYKHDHFLSLLEKLCGTGKKNGPKFFKVLKRIMQSYLDDITDLTSTNSSVQKSIFVLCTNISNITFVSQYDLVSLLKTIDLTTDRLKEVIMDEIGDNVSSLSVSEEKLSGIILIQLSLQDLGTYLLHLYGLRDDVLLLDIVEESELKNKQLPAKKPDISKFSAQLENIEQYSSNGKLLTYFRKHVKDT

binding [2]: binds
B2: human SMC3, endogenous, Q9UQE7 1-1217 (protein)
chain: MYIKQVIIQGFRSYRDQTIVDPFSSKHNVIVGRNGSGKSNFFYAIQFVLSDEFSHLRPEQRLALLHEGTGPRVISAFVEIIFDNSDNRLPIDKEEVSLRRVIGAKKDQYFLDKKMVTKNDVMNLLESAGFSRSNPYYIVKQGKINQMATAPDSQRLKLLREVAGTRVYDERKEESISLMKETEGKREKINELLKYIEERLHTLEEEKEELAQYQKWDKMRRALEYTIYNQELNETRAKLDELSAKRETSGEKSRQLRDAQQDARDKMEDIERQVRELKTKISAMKEEKEQLSAERQEQIKQRTKLELKAKDLQDELAGNSEQRKRLLKERQKLLEKIEEKQKELAETEPKFNSVKEKEERGIARLAQATQERTDLYAKQGRGSQFTSKEERDKWIKKELKSLDQAINDKKRQIAAIHKDLEDTEANKEKNLEQYNKLDQDLNEVKARVEELDRKYYEVKNKKDELQSERNYLWREENAEQQALAAKREDLEKKQQLLRAATGKAILNGIDSINKVLDHFRRKGINQHVQNGYHGIVMNNFECEPAFYTCVEVTAGNRLFYHIVDSDEVSTKILMEFNKMNLPGEVTFLPLNKLDVRDTAYPETNDAIPMISKLRYNPRFDKAFKHVFGKTLICRSMEVSTQLARAFTMDCITLEGDQVSHRGALTGGYYDTRKSRLELQKDVRKAEEELGELEAKLNENLRRNIERINNEIDQLMNQMQQIETQQRKFKASRDSILSEMKMLKEKRQQSEKTFMPKQRSLQSLEASLHAMESTRESLKAELGTDLLSQLSLEDQKRVDALNDEIRQLQQENRQLLNERIKLEGIITRVETYLNENLRKRLDQVEQELNELRETEGGTVLTATTSELEAINKRVKDTMARSEDLDNSIDKTEAGIKELQKSMERWKNMEKEHMDAINHDTKELEKMTNRQGMLLKKKEECMKKIRELGSLPQEAFEKYQTLSLKQLFRKLEQCNTELKKYSHVNKKALDQFVNFSEQKEKLIKRQEELDRGYKSIMELMNVLELRKYEAIQLTFKQVSKNFSEVFQKLVPGGKATLVMKKGDVEGSQSQDEGEGSGESERGSGSQSSVPSVDQFTGVGIRVSFTGKQGEMREMQQLSGGQKSLVALALIFAIQKCDPAPFYLFDEIDQALDAQHRKAVSDMIMELAVHAQFITTTFRPELLESADKFYGVKFRNKVSHIDVITAEMAKDFVEDDTTHG

binding [3]: binds
B3: human MAU2, endogenous (protein, UniProt Q9Y6X3 1-613)
chain: MAAQAAAAAQAAAAQAAQAEAADSWYLALLGFAEHFRTSSPPKIRLCVHCLQAVFPFKPPQRIEARTHLQLGSVLYHHTKNSEQARSHLEKAWLISQQIPQFEDVKFEAASLLSELYCQENSVDAAKPLLRKAIQISQQTPYWHCRLLFQLAQLHTLEKDLVSACDLLGVGAEYARVVGSEYTRALFLLSKGMLLLMERKLQEVHPLLTLCGQIVENWQGNPIQKESLRVFFLVLQVTHYLDAGQVKSVKPCLKQLQQCIQTISTLHDDEILPSNPADLFHWLPKEHMCVLVYLVTVMHSMQAGYLEKAQKYTDKALMQLEKLKMLDCSPILSSFQVILLEHIIMCRLVTGHKATALQEISQVCQLCQQSPRLFSNHAAQLHTLLGLYCVSVNCMDNAEAQFTTALRLTNHQELWAFIVTNLASVYIREGNRHQEVLYSLLERINPDHSFPVSSHCLRAAAFYVRGLFSFFQGRYNEAKRFLRETLKMSNAEDLNRLTACSLVLLGHIFYVLGNHRESNNMVVPAMQLASKIPDMSVQLWSSALLRDLNKACGNAMDAHEAAQMHQNFSQQLLQDHIEACSLPEHNLITWTDGPPPVQFQAQNGPNTSLASLL

From publication PMC10497406
